From PubChem BioAssay AID485281 (National Center for Advancing Translational Sciences (NCATS), 2010)
The campaign covered roughly 350,000 compounds. About 260 (0.074%) were called active. Inconclusive results, whose numbers are uncertain, are shown with a selection of clear calls. Calls follow the shape of the dose curve; as a rule, active = well fitted inhibition curve with a large enough effect; inconclusive = small, poorly fitted or top-dose-only effect; inactive = no such curve, though single readings can be large or run the other way. Where the call is inconclusive, the potency comes from a doubtful curve fit.

Target: Ferritin light chain (Equus caballus) (UniProt P02791)
UniProt P02791, sequence (P02791 whole entry, looked up): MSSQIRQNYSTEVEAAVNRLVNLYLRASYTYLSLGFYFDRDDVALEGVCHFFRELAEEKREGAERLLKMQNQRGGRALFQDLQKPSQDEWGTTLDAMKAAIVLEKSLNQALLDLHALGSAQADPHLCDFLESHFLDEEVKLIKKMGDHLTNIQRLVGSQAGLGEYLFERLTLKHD
Assay: qHTS Assay for Identification of Novel General Anesthetics; also: nearly all actives have a fitted effect of over 20% in size
Conditions: apoferritin/1-aminoanthracene competitive binding, fluorescence; series mostly up to 77.5 µM
Procedure, shortened: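 Concentration-response curves derived by four-parameter Hill fitting of normalized fluorescence, where compounds displaced 1-AMA from 10 uM horse apoferritin following a brief 10 min room-temperature incubation; propofol titration acted as positive control.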
Potency is read from the fitted curve at half-maximal effect; tags tell the direction and shape of the fitted curve.

Structure (SMILES)	Potency
c1csc(-c2ccc3ccccc3n2)c1	inconclusive: 28.2 µM [inhibitor, partial curve]
Cc1ccc(OCCCC(=O)Nc2ccccc2C(F)(F)F)cc1	inconclusive: 12.6 µM [inhibitor, partial curve]
COc1ccc(CCC(=O)N2CCc3c([nH]c4ccccc34)C2c2ccc(F)cc2)cc1 (centres undefined)	inconclusive: 0.891 µM [inhibitor, full curve, poor fit]
Cc1ccc2onc(CNC(=O)N3CCN(c4cccc(C)c4C)CC3)c2c1	inactive
CC[n+]1c(/C=C/c2ccc(N(C)C)cc2)ccc2ccccc21	inconclusive: 50.1 µM [inhibitor, single point]
COC(=O)C1Cc2c([nH]c3ccccc23)CN1 (centres undefined)	inactive
CN(C)/C=N/C(=S)Nc1ccc(Br)cc1F	inconclusive: 50.1 µM [inhibitor, single point]
Cc1ccc2c(c1)/C(=C/c1ccccc1C)C(=O)N2	inconclusive: 17.8 µM [inhibitor, partial curve]
O=C(NCCc1ccc2c(c1)OCCO2)c1cc2ccccc2o1	inconclusive: 35.5 µM [inhibitor, partial curve]
Cc1cc(C2=NNC(=NC3CCCCC3)SC2)c(C)n1-c1c(C)n(C)n(-c2ccccc2)c1=O	inconclusive: 31.6 µM [inhibitor, partial curve]
CC(=O)c1cccc(-n2nnnc2SCC(=O)Nc2cccc(NC(=O)c3ccco3)c2)c1	inconclusive: 17.8 µM [inhibitor, partial curve]
Cc1cccc(/C=C2\CS/C(=C\c3cccc(C)c3)C2=O)c1	inconclusive: 28.2 µM [inhibitor, partial curve]
O=C(CCC1CCCCC1)Nc1c[nH]c(=O)[nH]c1=O	inconclusive: 15.8 µM [inhibitor, partial curve]
COc1ccc(N(C)C(=O)CCn2cnc3onc(-c4ccc(F)cc4)c3c2=O)c(OC)c1	inactive
Cc1ccc2nc(N3C(=O)C(O)=C(C(=O)c4ccco4)C3c3cccs3)sc2c1 (centres undefined)	inconclusive: 20 µM [inhibitor, partial curve]
CCCCN(CCCC)C(=O)c1cc2c(=O)n3cccc(C)c3nc2s1	inactive
Cc1cccnc1NCc1ccc(O)c2ncccc12	inconclusive: 14.1 µM [inhibitor, partial curve]
CCCCCS(=O)(=O)c1oc(-c2cccs2)nc1S(=O)(=O)c1ccc(C)cc1	inactive
O=c1[nH]c(Cn2nnc(-c3ccccc3)n2)nc2scc(-c3ccccc3)c12	inconclusive: 14.1 µM [inhibitor, partial curve]
CCc1cccc(CC)c1NC(=O)c1cc(CN2C(=O)c3ccccc3C2=O)ccc1OC	inconclusive: 25.1 µM [inhibitor, partial curve, poor fit]
CC1CC/C(=C\c2ccc3c(c2)OCO3)C(=O)/C1=C/c1ccc2c(c1)OCO2 (centres undefined)	inconclusive: 35.5 µM [inhibitor, partial curve]
COc1cc(OC)c(OC)cc1CN1CCN(Cc2cccn2C)CC1	inactive
COc1ccccc1NC(=O)C(=O)NCCc1csc(-c2cccc(F)c2)n1	inactive

Structure (SMILES)	Potency
CC(C)CCSc1cc(NCCO)c([N+](=O)[O-])c2nonc12	inconclusive: 44.7 µM [inhibitor, partial curve]
CCn1c(C(O)c2ccc3c(c2)OCO3)nc2ccccc21 (centres undefined)	inconclusive: 25.1 µM [inhibitor, partial curve]
CC(C)COC(=O)N(C)c1ccc(C(O)(C(F)(F)F)C(F)(F)F)cc1	inconclusive: 35.5 µM [inhibitor, partial curve]
Cc1ccc(S(=O)(=O)Nc2ccc(Cl)cc2C(=O)c2ccc(F)cc2)cc1	inconclusive: 28.2 µM [inhibitor, partial curve]
Cc1[nH][nH]c(=O)c1C(c1ccc(-c2ccc(Cl)cc2Cl)o1)c1c(C)[nH][nH]c1=O	inconclusive: 28.2 µM [inhibitor, single point]
Cc1ccc(CNC(=O)c2ccc(Cn3nc(C)c(Cl)c3C)o2)cc1	inconclusive: 35.5 µM [inhibitor, partial curve]
CCOC(=O)c1ccccc1NC(=O)c1cncc(Br)c1	inactive
Cc1nn(-c2ccccc2)c2c1C1(C(=O)N3c4c(cccc41)C(C)CC3(C)C)C(C#N)=C(N)O2 (centres undefined)	inconclusive: 10 µM [inhibitor, partial curve]
CCOC(=O)C1CCN(c2ncnc3c2oc2ccccc23)CC1	inactive
COc1ccccc1-c1nnc(SCC(=O)c2ccc(Cl)cc2)n1-c1ccccc1	inconclusive: 5.62 µM [inhibitor, partial curve]
COC(=O)c1ccc2c(=O)[nH]c(CN3c4ccccc4CC3C)nc2c1 (centres undefined)	inconclusive: 14.1 µM [inhibitor, partial curve]
COc1ccc(Br)cc1CN(C)C(C)C(=O)Nc1cccc(C(C)=O)c1 (centres undefined)	inconclusive: 35.5 µM [inhibitor, partial curve]
COc1ccc(-c2csc3ncnc(N4CCN(c5ccccc5O)CC4)c23)cc1	inconclusive: 15.8 µM [inhibitor, partial curve]
COc1ccc(C2=NN(CC(=O)NCCc3ccc(OC)c(OC)c3)C(=O)CC2)cc1	inconclusive: 20 µM [inhibitor, partial curve]
COc1cc2ccccc2cc1C(=O)Nc1ccc(Cc2ccncc2)cc1	inactive
O=[N+]([O-])c1cccnc1SCc1ccccc1	inconclusive: 50.1 µM [inhibitor, single point]
CC(C)c1ccc(NC(=O)COc2nnc(-c3cccs3)c(-c3cccs3)n2)cc1	inconclusive: 28.2 µM [inhibitor, partial curve]
O=[N+]([O-])c1cc(S(=O)(=O)N2CCCCCC2)ccc1Cl	inconclusive: 31.6 µM [inhibitor, partial curve]
O=C(CSCC(=O)OCC(=O)c1ccc(Br)cc1)Nc1ccc(Br)cc1	inconclusive: 14.1 µM [inhibitor, partial curve]
COc1ccccc1NC(=O)C(C/C=C(\C)Cl)C(C)=O (centres undefined)	inconclusive: 22.4 µM [inhibitor, partial curve]
CC(C)(C(=O)Nc1nccs1)c1ccccc1	inconclusive: 14.1 µM [inhibitor, partial curve]
O=C(COc1cccc(Br)c1)N/N=C1\CCSC1	inconclusive: 22.4 µM [inhibitor, partial curve]
COc1ccc(OC)c(-n2c(=S)[nH]c3cc(C(=O)N4CCN(c5ccccc5)CC4)ccc3c2=O)c1	inconclusive: 10 µM [inhibitor, partial curve]

Structure (SMILES)	Potency
CCOC(=O)C1=C(C)N(CCCCCC(=O)O)C(=O)NC1c1cccc([N+](=O)[O-])c1 (centres undefined)	inactive
O=S(=O)(Cc1ccccc1)NCCc1cccc(Cl)c1	inconclusive: 35.5 µM [inhibitor, partial curve]
CCc1ccc(Nc2ncccc2C#N)cc1	inconclusive: 28.2 µM [inhibitor, partial curve]
Cc1ccc(OC(=O)c2ccc3snnc3c2)cc1	inconclusive: 15.8 µM [inhibitor, partial curve]
NS(=O)(=O)c1ccc(CCNC(=O)CSc2cccs2)cc1	inconclusive: 35.5 µM [inhibitor, partial curve]
CCCCN(C)C(=O)CS(=O)(=O)Cc1nc(-c2cccc(OC)c2)oc1C	inactive
O=C(C1Cc2ccccc2O1)N1CCCCC1 (centres undefined)	inconclusive: 15.8 µM [inhibitor, partial curve]
COc1cccc(/C=N/NC(=O)Cn2nc(C)c([N+](=O)[O-])c2C)c1O	inactive
CSc1ccccc1OCc1cc(C(=O)NC2CCOC(C)(C)C2)no1 (centres undefined)	inconclusive: 12.6 µM [inhibitor, partial curve]
CCOc1ccc(/C=N/NC(=O)CC(=O)Nc2ccc(Cl)c(Cl)c2)cc1	inconclusive: 3.55 µM [inhibitor, full curve]
O=[N+]([O-])c1ccc(Nc2nc(N/N=C\c3ccc4c(c3)OCO4)nc(N3CCCCC3)n2)cc1	inactive
Oc1c(C=NCc2ccccc2)sc2ccccc12	inconclusive: 31.6 µM [inhibitor, single point]
COc1ccc(-c2cc(C(C)=O)c(C)n2CCC(=O)Nc2cc(Cl)ccc2C)cc1	inactive
COc1cc2c(cc1OC)C1O[C@](c3ccsc3)(C2)Oc2c1c(=O)oc1ccc(F)cc21	inconclusive: 2.51 µM [inhibitor, partial curve]
CC(C)CC1NC(=O)N(CC(=O)Nc2ccc3c(c2)CCC3)C1=O (centres undefined)	inconclusive: 17.8 µM [inhibitor, partial curve]
Cc1cc(Br)ccc1OCC(=O)N1CCCCCC1	inconclusive: 20 µM [inhibitor, partial curve]
Cc1cc(C)cc(NC(=O)CSc2ccccc2)c1	inconclusive: 12.6 µM [inhibitor, partial curve]
CCC(C)c1ccc(NC(=O)c2cccnc2)cc1 (centres undefined)	inactive
Cc1ccc(NC(=O)CCn2cccc2)cc1F	inconclusive: 44.7 µM [inhibitor, single point]
CCc1ccccc1NC(=O)c1cnc(N2CCCCC2)c2ccccc12	inactive
CNC(=O)c1[nH]cnc1C(=O)NCC(=O)OC(C)(C)C	inconclusive: 35.5 µM [inhibitor, single point]
CC(=O)N1N=C(c2ccc(C)cc2)OC1c1ccc(C(C)C)cc1 (centres undefined)	inactive
CCCc1ccc(-c2cc(C(=O)N/N=C/c3ccc([N+](=O)[O-])o3)c3ccccc3n2)cc1	inconclusive: 35.5 µM [inhibitor, partial curve]
